Results reported in the supplement of paper PMC3724861.
The other results are listed elsewhere or left out.

Each sequence was assayed on T1, Caupolican (Caup) homeodomain DNA-binding domain (assay: PBM E-score (8-mer, recovered from the published 9-mer minima) (E-score (dimensionless, -0.5 to 0.5)); Drosophila protein; higher = stronger relative binding preference, active = 0.31 or more).
T1 sequence: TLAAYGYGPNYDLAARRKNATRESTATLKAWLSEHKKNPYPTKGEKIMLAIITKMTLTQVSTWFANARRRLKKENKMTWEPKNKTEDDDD
Summary of the method: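 An enrichment score, with higher meaning stronger, expresses relative binding preference for each short DNA word. The protein used was Caup's homeodomain DNA-binding domain (residues 214-303), produced by in vitro transcription and translation and tested at 100 nM on custom-designed protein binding microarrays. The 8-mer values were recovered from published 9-mer scores, each equal to the lower of its two constituent 8-mer scores.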

Sequence	PBM E-score
ATAGCTTC	inactive: -0.0833
CGGTAATA	inactive: 0.102
GAATATAA	inactive: 0.102
AGGAGGCC	inactive: -0.19
CTCGGGTC	inactive: -0.173
CGACGACC	inactive: -0.0986
AAGGTTAA	inactive: -0.0112
CGCCTTCC	inactive: -0.23
ACGTAGCA	inactive: 0.0628
GCCAACCA	inactive: -0.17
CGTGCGTA	inactive: 0.00167
AGATTAGG	inactive: 0.00061
AGCCGGAA	inactive: -0.0717
AAACATTC	inactive: 0.209
GGCGGATA	inactive: -0.128
GCCCGGCC	inactive: -0.304
ATTCCAAC	inactive: 0.0683
CGAGCACA	inactive: 0.0885
CGCGCTAA	inactive: -0.0369
GAATGTAA	inactive: 0.223
ACAGCCGA	inactive: -0.0617
AACGGAAT	inactive: 0.0789
AGCCTTTG	inactive: -0.0446
GCGTCCGA	inactive: -0.109
GGTAGGTA	inactive: 0.0213

Sequence	PBM E-score
AGCGTTTC	inactive: -0.113
CCCAATAG	inactive: 0.0116
CTAAGATC	inactive: 0.00342
ATTAGTAC	inactive: 0.244
AAGTATGG	inactive: 0.0421
ATGGGCGG	inactive: -0.0618
AATAATTA	inactive: 0.182
GATAGACA	inactive: 0.221
CCAGTCGG	inactive: -0.252
ATCCTGTG	inactive: 0.124
AGGTGACT	inactive: 0.0561
CTTTCCGC	inactive: -0.119
TGACCTAA	inactive: 0.102
CATTAGCA	inactive: 0.0578
AGGGGGCC	inactive: -0.328
GCAGATCC	inactive: -0.0138
CCACATTC	inactive: -0.0268
CATCTCTC	inactive: -0.0604
TCACTGAA	inactive: -0.0594
AAAACTCG	inactive: 0.0449
ATTAGAGG	inactive: -0.11
ATTCTTAC	inactive: 0.0953
CCCAGGTC	inactive: -0.202
CCTGCGCC	inactive: -0.256
ACTCAAAA	inactive: 0.0451

Sequence	PBM E-score
CACCTCGA	inactive: -0.0164
AGATGGAT	inactive: -0.00579
AGTCGTTC	inactive: 0.0704
CACCGTAA	inactive: 0.0636
ATATAGAC	inactive: 0.16
ACGCAACG	inactive: -0.0397
CCCCAGAC	inactive: -0.279
AGCGTTAC	inactive: 0.0202
GGAAATAC	inactive: 0.028
ATGGAGAA	inactive: 0.00663
AGAACGGA	inactive: -0.0256
AGTCCGAC	inactive: 0.00681
GACAATAC	inactive: 0.243
CTGCAATC	inactive: -0.0299
ATCCGTAG	inactive: -0.0801
TAAGATGA	inactive: 0.0929
CTACAGTA	inactive: 0.143
CCTCGACA	inactive: 0.115
CTGTCAGA	inactive: 0.0887
CAGGGCTC	inactive: -0.224
CACAAAAG	inactive: -0.0474
AGTAATAT	inactive: 0.206
CTCAGACC	inactive: -0.175
GTGAGGTA	inactive: 0.00731
CAGCCACC	inactive: -0.164

Sequence	PBM E-score
CGAGAAAA	inactive: -0.00744
CTAATCGC	inactive: -0.0168
TTATCAAA	inactive: 0.109
AAGAAGCA	inactive: -0.0425
GCGCTACC	inactive: -0.168
AAATGGAA	inactive: 0.0926
ATTTAATA	≥ 0.213
AAGACGCT	inactive: -0.12
TATGAACA	inactive: 0.286
GCGAGGCA	inactive: -0.165
GAGTCCAC	inactive: -0.111
CTAACGCA	inactive: -0.0602
CCGCAAGG	inactive: -0.169
ATTGCGGA	inactive: -0.0272
TCAGCGAA	inactive: -0.126
CAGCTTCA	inactive: -0.0122
AAACACGA	active: ≥ 0.351
ATTCTCCG	inactive: -0.0182
AGATTATA	inactive: 0.0814
ATTTTGTA	inactive: 0.257
CACACGAG	inactive: 0.0345
CGTAGCGA	inactive: -0.161
ACTCGAAT	inactive: -0.0526
CACGATTA	inactive: 0.198
ATCCTTCG	inactive: -0.116

Sequence	PBM E-score
GGTGGGTA	inactive: -0.059
CGCGACCA	inactive: -0.128
AAAACTGA	inactive: 0.024
GATGGCAC	inactive: -0.0956
AGTCTGAC	inactive: -0.00953
GACCGAAA	inactive: -0.103
GGTTTTTA	inactive: 0.156
AGTTGGGC	inactive: -0.15
ACTAACTA	inactive: 0.0312
ATGGGCTA	≥ 0.0306
CCGGAGGA	inactive: -0.187
AAGTCTCG	inactive: -0.125
CAAAAGTA	inactive: 0.0662
CCGCGGGA	inactive: -0.162
ACCGTAAG	inactive: -0.0645
TCTTTTAA	inactive: 0.0287
CCGTTGAG	inactive: -0.108
ATGGCACA	inactive: 0.0648
CTCTCCAA	inactive: -0.098
CTATGGCA	inactive: -0.0578
TCATGCCA	inactive: 0.0318
ACTAGCCG	inactive: -0.0873
CCTCTGCA	inactive: -0.0612
CAGCCCTC	inactive: -0.2
AGGCGGTG	inactive: -0.124

Sequence	PBM E-score
CCAACCAA	inactive: -0.0875
ACACGGCC	inactive: 0.0794
TCGTAAAA	inactive: 0.0862
CCTACGAC	inactive: -0.0649
CGCTGAGC	inactive: -0.0837
TCTGAAGA	inactive: -0.049
ACGCCACC	inactive: -0.13
ATAATTTG	inactive: 0.127
AAACAACA	active: 0.363
CGATTATC	inactive: 0.0356
AAGTTGTA	≥ 0.308
CCACATCG	inactive: 0.0461
CGGGGATA	inactive: -0.0523
TCTCTGCA	inactive: -0.0535
CATCGACG	inactive: -0.0542
AGGCATTA	inactive: -0.0614
GGCTGTAA	inactive: 0.045
GTAGTGAC	inactive: 0.111
CGCATCCA	inactive: -0.0646
AAGGGTCG	≥ -0.0829
GAGAACGA	inactive: 0.00546
GCTCGATA	inactive: -0.101
AGATCTCA	inactive: -0.0458
CGGGGTCC	inactive: -0.223
GCCGTTGA	inactive: -0.0893

Sequence	PBM E-score
GTTGTACA	active: 0.388
GGCCATGA	inactive: -0.146
GCTTATGA	inactive: 0.0131
CGACGTCC	inactive: -0.16
AGGTGTTA	inactive: 0.207
AGACATCA	inactive: 0.197
ACTGTCAC	inactive: 0.0476
CAGGGTTA	inactive: -0.0166
AACATTGG	inactive: 0.159
ATAGCTAC	inactive: 0.0164
CCCGTTAA	inactive: -0.0644
ACAATAAA	inactive: 0.17
ACGACGCT	inactive: -0.0654
GCTCGAGA	inactive: -0.0658
ATAAGGGA	inactive: 0.0525
ATCGGAGC	inactive: -0.221
CGAAGGAA	inactive: -0.0222
AACGTAAT	≥ 0.214
AGGCTCGC	inactive: -0.138
TCCGTTCA	inactive: 0.0106
AGAGTACG	inactive: -0.075
CCAGCCGC	inactive: -0.245
CCATTGAC	inactive: -0.026
AGATTAAA	inactive: 0.115
ATTCTAAA	inactive: 0.0618

Sequence	PBM E-score
ATGTTAAT	active: 0.352
GAGGGACA	inactive: 0.0675
ATGGGACG	inactive: -0.109
CAAAGGGC	inactive: -0.135
CATGCTCG	inactive: 0.068
AAGGCTTA	inactive: -0.0473
AAATGGCA	≥ 0.0414
GTAGTATA	inactive: 0.219
ACGCTTGA	inactive: 0.0154
ACCGCATG	inactive: -0.0108
AGTGTTAC	inactive: 0.278
AGGCGCCG	inactive: -0.14
AAGGCCGT	inactive: -0.107
CTTTTAAA	inactive: -0.0196
CCGCAGCA	inactive: -0.196
ATTACCTG	inactive: 0.0771
ACTATCCA	inactive: 0.0891
CCACGTTA	inactive: 0.057
ATAGGACA	inactive: 0.208
AAATGGGG	inactive: -0.0821
AATTCGTC	inactive: 0.0479
ATCAATAG	inactive: 0.141
AACCCTTC	inactive: -0.055
CTCCCTCA	inactive: -0.179
CTAGAGTA	inactive: -0.0267

Sequence	PBM E-score
ATCCGTGC	inactive: 0.0481
GTGTGTTA	inactive: 0.275
AATCTAAT	inactive: 0.11
CGGCGGAA	inactive: -0.237
ATGGACCA	≥ 0.0351
CGCGCAAC	inactive: -0.0395
GCACTGAC	inactive: -0.0206
AGTCCTCC	inactive: -0.105
CCACGAGA	inactive: -0.107
CCCAGACA	inactive: 0.0239
CATAGGAA	inactive: 0.0598
TATTTGGA	inactive: 0.00759
GGCTATGA	inactive: -0.0593
GAGGACCA	inactive: -0.0284
AGAACCCA	inactive: -0.0466
ACACCAGT	inactive: 0.101
ACACAAAC	inactive: 0.261
CCCGATGC	inactive: -0.176
GCCCTGGA	inactive: -0.259
ATAGGCGC	inactive: -0.114
GAACTCAC	inactive: -0.0518
CTTGAAGC	inactive: -0.0852
CGACAATC	inactive: 0.053
